The RNAGym collection of RNA variant scans (doi:10.1093/nar/gkz1192)
The source gives no read counts; variants with many changes may rest on few reads.

B1: CPEB3 Ribozyme (parent)
chain: UAACAGGGGGCCACAGCAGAAGCGUUCACGUCGCAGCCCCUGUCAGAUUCUGGUGAAUCUGCGAAUUCUGCUGUAUAUCUC

Variants of: B1
Assay: self-cleavage, relative activity (ratio to wild type); higher = more cleavage; in vitro, sequencing
How it was run: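 Barcoded CPEB3 ribozyme mutants, produced by rounds of error-prone PCR, self-cleaved while being transcribed with T7 RNA polymerase for 5 hours at 37°C and during a subsequent 15 min DNase I step before EDTA was added. Sequencing of template-switched cDNA on Illumina gave cleaved and total reads, and DNA sequencing assigned barcodes to variants. Each variant's relative activity is its cleaved/total read fraction divided by the unmutated ribozyme's fraction, averaged across three batches. A variant needed a minimum of 5 reads.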

Q: With UAACAGGGGGCCACAGCAGAAGCGUUCACGUCGCAGCCCCUGUCAGAUUCUGGAGUAUCUGCGAUUUCUGCUGUAUAUCUC [U54A A56U A65U] as the variant, how does the self-cleavage read?
A: 0.14

Q: With UAACAGGGGGCCACAGCAGAAGCGUUCACGUCGCAGCCCCUGUCAGAUUCUAGUGAAUCUGCGAACUCUGCUGUAUACCUC [G52A U66C U78C] as the variant, how does the self-cleavage read?
A: 0.51

Q: With UAACAGGGGGCCACAGCAGAAGCGUUCACGUCGCAGCCCCUGUCAGAUUCUGGAGGAUCUGCGAAUUCUGCUGCAUAUCUC [U54A A56G U74C] as the variant, how does the self-cleavage read?
A: 0.91

Q: For UAACAGGGGGCCACAGCAGAAGCGUUCACGUCGCAGCCCCUGUCAGAUUCUGGAGAAUCUGCGUAUUCUGCUGUAUAUCCC [U54A A64U U80C], which self-cleavage is on record?
A: 0.37

Q: For UAACAGGGGGCCACAGCAGAAGCGUUCACGUCGCAGCCCCUGUCAGAUUCUGGAGAGUCUGCGAAUUCUGCUGUAUAUCCC [U54A A57G U80C], which self-cleavage is on record?
A: 1.04

Q: With UAACAGGGGGCCACAGCAGAAGCGUUCACGUCGCAGCCCCUGUCAGAUUCUGGAGAAACUGCGAAUUCUGCUGUAUAUCCC [U54A U58A U80C] as the variant, how does the self-cleavage read?
A: 0.56

Q: With UAACAGGGGGCCACAGCAGAAGCGUUCACGUCGCAGCCCCUGUCAGAUUCUGGAGUAUCUGCGAAUUCCGCUGUAUAUCUC [U54A A56U U69C] as the variant, how does the self-cleavage read?
A: 0.37

Q: For UAACAGGGGGCCACAGCAGAAGCGUUCACGUCGCAGCCCCUGUCAGAUUCUGAUGAAUCUGCGAGUUCUGCUGCAUAUCUC [G53A A65G U74C], which self-cleavage is on record?
A: 0.64

Q: For UAACAGGGGGCCACAGCAGAAGCGUUCACGUCGCAGCCCCUGUCAGAUUCUGGCGGAUCUGCGAAUUCUGCUGUAUUCCUC [U54C A56G A77U U78C], which self-cleavage is on record?
A: 0.47

Q: Which self-cleavage does the source give for UAACAGGGGGCCACAGCAGAAGCGUUCACGUCGCAGCCCCUGUCAGAUUCUGAUGAAUCUGCGACUUCUGCUGUCUAUCUC [G53A A65C A75C] here?
A: 0.18

Q: For UAACAGGGGGCCACAGCAGAAGCGUUCACGUCGCAGCCCCUGUCAGAUUCUGGAGAGUCUGCGAGUUCUGCUGUAUAUCUC [U54A A57G A65G], which self-cleavage is on record?
A: 0.19

Q: Which self-cleavage does the source give for UAACAGGGGGCCACAGCAGAAGCGUUCACGUCGCAGCCCCUGUCAGAUUCUGGAGAAUCUGCGAUUUCUGCUGUAAAUCUC [U54A A65U U76A] here?
A: 0.21

Q: Which self-cleavage does the source give for UAACAGGGGGCCACAGCAGAAGCGUUCACGUCGCAGCCCCUGUCAGAUUCUGCGGAAUCUGUGAGUUCUGCUGUAUAUCUC [G53C U54G C62U A65G] here?
A: 0.29

Q: For UAACAGGGGGCCACAGCAGAAGCGUUCACGUCGCAGCCCCUGUCAGAUUCUGGAGGAUCUGCGAAUACUGCUGUAUAUCCC [U54A A56G U67A U80C], which self-cleavage is on record?
A: 0.51

Q: Which self-cleavage does the source give for UAACAGGGGGCCACAGCAGAAGCGUUCACGUCGCAGCCCCUGUCAGAUUCUGGAGAAUCAGCGAAUUCCGCUGUAUAUCUC [U54A U60A U69C] here?
A: 0.4

Q: For UAACAGGGGGCCACAGCAGAAGCGUUCACGUCGCAGCCCCUGUCAGAUUCUGGAGAAAUUGCGAAUUCUGCUGUAUAUCUC [U54A U58A C59U], which self-cleavage is on record?
A: 0.45

Q: Which self-cleavage does the source give for UAACAGGGGGCCACAGCAGAAGCGUUCACGUCGCAGCCCCUGUCAGAUUCUGAUGAAUCUGCGAGUUCUGCUGUAUACCUC [G53A A65G U78C] here?
A: 0.44

Q: Which self-cleavage does the source give for UAACAGGGGGCCACAGCAGAAGCGUUCACGUCGCAGCCCCUGUCAGAUUCUAGUGAAUCCGCGAAUUCUGCAGUAUAUCUC [G52A U60C U72A] here?
A: 0.41

Q: For UAACAGGGGGCCACAGCAGAAGCGUUCACGUCGCAGCCCCUGUCAGAUUCUGGAGAGUCUGCGAAUCCUGCUGUAUAACAC [U54A A57G U67C U78A U80A], which self-cleavage is on record?
A: 0.62

Q: Which self-cleavage does the source give for UAACAGGGGGCCACAGCAGAAGCGUUCACGUCGCAGCCCCUGUCAGAUUCUGAUGAGUCUGCGAAUUCUGCUGUAUACCUC [G53A A57G U78C] here?
A: 0.65

Q: Which self-cleavage does the source give for UAACAGGGGGCCACAGCAGAAGCGUUCACGUCGCAGCCCCUGUCAGAUUCUGAUGAAUCUGCGAAUUCUGCAGUGUAUCUC [G53A U72A A75G] here?
A: 1.26

Q: For UAACAGGGGGCCACAGCAGAAGCGUUCACGUCGCAGCCCCUGUCAGAUUCUGGAGAACCUGCGAAUUCUGCUGUAAAUCUC [U54A U58C U76A], which self-cleavage is on record?
A: 1.1

Q: With UAACAGGGGGCCACAGCAGAAGCGUUCACGUCGCAGCCCCUGUCAGAUUCUUGUGAAUCUGCGGAUCCUGCUGUAUAUCUC [G52U A64G U67C] as the variant, how does the self-cleavage read?
A: 0.13

Q: For UAACAGGGGGCCACAGCAGAAGCGUUCACGUCGCAGCCCCUGUCAGAUUCUAGUGAACCUGCGAAUCCUGCUGUAUAUCUC [G52A U58C U67C], which self-cleavage is on record?
A: 0.34

Q: Which self-cleavage does the source give for UAACAGGGGGCCACAGCAGAAGCGUUCACGUCGCAGCCCCUGUCAGAUUCUCGUGAAUCCGCGAAUACUGCUGUAUAUCUC [G52C U60C U67A] here?
A: 0.39

Q: With UAACAGGGGGCCACAGCAGAAGCGUUCACGUCGCAGCCCCUGUCAGAUUCUGGAGAAUCUGCGAAUUCUGAUGUAUACCAC [U54A C71A U78C U80A] as the variant, how does the self-cleavage read?
A: 0.53

Q: With UAACAGGGGGCCACAGCAGAAGCGUUCACGUCGCAGCCCCUGUCAGAUUCUGGAGAGUCUGCGAAUUCCGCUGUCUAUCUC [U54A A57G U69C A75C] as the variant, how does the self-cleavage read?
A: 0.46

Q: With UAACAGGGGGCCACAGCAGAAGCGUUCACGUCGCAGCCCCUGUCAGAUUCUGAUGAGCCUGCGAAUUCUGCUGUAUAUCUC [G53A A57G U58C] as the variant, how does the self-cleavage read?
A: 0.36

Q: For UAACAGGGGGCCACAGCAGAAGCGUUCACGUCGCAGCCCCUGUCAGAUUCUGGAGAAUCUGCGAAUUCUGCCGUAUACCUC [U54A U72C U78C], which self-cleavage is on record?
A: 1.14

Q: With UAACAGGGGGCCACAGCAGAAGCGUUCACGUCGCAGCCCCUGUCAGAUUCUUGUGAGUCUGCGAGUUCUGCUGUAUAUCUC [G52U A57G A65G] as the variant, how does the self-cleavage read?
A: 0.62

Q: With UAACAGGGGGCCACAGCAGAAGCGUUCACGUCGCAGCCCCUGUCAGAUUCUGGAGAAUCCGCGACUUCUGCUGUAUACCUC [U54A U60C A65C U78C] as the variant, how does the self-cleavage read?
A: 0.2

Q: Which self-cleavage does the source give for UAACAGGGGGCCACAGCAGAAGCGUUCACGUCGCAGCCCCUGUCAGAUUCUGGAGAGUCUGCGAAUUCUGCUGUGUAUCUC [U54A A57G A75G] here?
A: 0.43

Q: For UAACAGGGGGCCACAGCAGAAGCGUUCACGUCGCAGCCCCUGUCAGAUUCUGGAGAAUCUGCCAGUUCUGCUGCAUAUCUC [U54A G63C A65G U74C], which self-cleavage is on record?
A: 0.47

Q: For UAACAGGGGGCCACAGCAGAAGCGUUCACGUCGCAGCCCCUGUCAGAUUCUGGAGAAUCUGCGAGUUCCGCUGUAUAUCUC [U54A A65G U69C], which self-cleavage is on record?
A: 0.3
